In all, about 210,000 compounds went through this assay and about 730 (0.35%) were called active. Inconclusive means that the source gave no clear call. Such entries were picked first, then a sample of the others. Calls come from the whole dose curve; as a rule, active = well fitted inhibition curve with a large enough effect; inconclusive = small, poorly fitted or top-dose-only effect; inactive = no such curve, though single readings can be large or run the other way. Potencies of inconclusive entries are doubtful fits and often do not repeat.
Assay: qHTS Assay for Identifying the Cell-Membrane Permeable IMPase Inhibitors: Potentiation with Lithium; note: nearly all actives have a fitted effect of over 50% in size;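 for activity, negative = IMPase inhibition: plate controls were basal vehicle for no effect and high inhibitor control for full effect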
Conditions: CHO-M1 cells, IP1 TR-FRET (IP-One), carbachol + lithium; series mostly up to 59.4 µM; activity, negative = IMPase inhibition: at the top concentration
Excerpt: NIH Chemical Genomics Center [NCGC]
NIH Molecular Libraries Probe Production centers Network [MLPCN]
Assay Submitter (PI): Wei Zheng
Lithium has been widely used for the treatment of bipolar disorder. But lithium has a narrow therapeutic index and it can cause side effects such as thirst, weight gain, tremor, polyuria and memory problems. Although the mechanism for lithium action in treatment of bipolar disorder is still not fully understood, inhibition of inositol monophosphatase (IMPase) and the subsequent depletion of the inositol pool in living cells have been implicated as the primary therapeutic benefit of lithium therapy. Therefore, a selective IMPase inhibitor with reduced side effects might be a good drug candidate to replace lithium for the treatment of bipolar disorder. Several IMPase inhibitors have been discovered previously. However, they are not suitable for therapeutic use because of their poor cell membrane penetrability or oral bioavailability; the development of new cell-permeable IMPase inhibitors is needed.
IMPase catalyzes the hydrolysis of inositol-1-phosphate (IP1) to release free inositol. Binding of an agonist to a Gq coupled GPCR results in the activation of PLC, which hydrolyzes the PIP2 to form inositol-1,4,5-trisphosphate (IP3) and diacyl glycerol (DAG). While DAG activates protein kinase C (PKC), IP3 triggers the elevation of intracellular free Ca2+. The IP3 is very rapidly inactivated by hydrolysis to IP2, IP1 and then inositol by a series of enzymes including IMPase. Free inositols are used for synthesis of PI and thus start another inositol cycle.
To identify new cell-permeable IMPase inhibitors, we developed a cell-based IMPase assay in which the cytosolic IP1 is measured by a time-resolved fluorescence resonance energy transfer (TR-FRET) assay. In this assay, an IP1 specific antibody is used to detect the labeled IP1 tracer. When the cell lysate contains the elevated IP1 due to the inhibition of IMPase, the TR-FRET between the labeled antibody and IP1 tracer is disrupted resulting in a reduction in the total signal. Since the TR-FRET is used, this cell-based assay is a homogenous assay without cell wash and medium change that is suitable for assay miniaturization and HTS. In this particular assay, a small amount of lithium is added to potentiate the response of weak activators.
NCGC Assay Protocol Summary:
A Chinese hamster ovary (CHO) cell line stably expressing the M1 receptor (CHO-M1) was obtained from ATCC and maintained in F-12 Kaighn's media (Invitrogen, Carlsbad, CA) supplemented with 10 % FBS, 100 units/ml penicillin, 100 ug/ml streptomycin and 250 ug/ml geneticin at 37C, 5% CO2 in a humidified atmosphere. Before the assay, aliquots of cells were frozen and stored at -135C. The assay was performed in 1536-well format. Data are reported for both the ratio of the two emission wavelengths, and also for the component 'donor' channel, Em2=620. […] AC50 values were determined from concentration-response data modeled with the standard Hill equation.
(1) Frozen CHO-M1 cells were thaw, washed once with fresh media and resuspended in F12K media containing 10% FBS, 100 units/ml penicillin and 100 ug/ml streptomycin. Cells were plated at 4ul/well (2000 cells) in white, tissue culture treated 1536-well plates, and then cultured at 37C, 5 % CO2 for 16 to 30 hours.
(2) Add 23 nl/well of compound in DMSO solution. The final titration for each compound was between 0.6 nM and 46 uM.
(4) Incubation at 37C, 5 % CO2 for 30 min.
(5) Add 1 ul/well of d2-conjugated IP1 (d2-IP1) and 1 ul/well of Eu+ cryptate conjugated anti-IP1 antibody (Eu+-Ab) prepared in the cell lysis buffer, both from the IP-One kit (Cisbio, MA).
(6) Incubate at room temperature for 10 minutes.
(7) Detect the assay plate (Ex = 320, Em1 =665 and Em2 620) in a ViewLux plate reader.
Potency is the fitted concentration of half-maximal effect.

Row | SMILES | Potency | activity, negative = IMPase inhibition
1 | COc1cccc(-c2nnc(NC(=O)Cc3cccs3)s2)c1 | inconclusive: 28.2 µM [inhibitor, single point] | –
2 | Cc1cccc(NC(=S)/N=C(\N)Nc2nc(C)c3ccccc3n2)c1 | inconclusive: 28.2 µM [inhibitor, single point] | –
3 | COC(=O)c1cc(NC(=O)c2ccccc2F)cc(C(=O)OC)c1 | inconclusive: 5.01 µM [inhibitor, single point] | –
4 | O=C(OCc1ccccc1)c1ccccc1 | – | inactive: -21.4%
5 | Cc1cccc(NC(=O)CSc2nsc(SCC(=O)Nc3cccc(C)c3)c2C#N)c1 | – | inactive: -9.31%
6 | CC(=O)c1c(C)nc2ccc(Br)cc2c1C(=O)O | active: 1 µM | –
7 | CC(=O)/C(=N\Nc1ccccc1)Sc1cccc2cccnc12 | – | inactive: 0.844%
8 | Cn1c(SCc2cc(=O)n3cc(Br)ccc3n2)nnc1C1COc2ccccc2O1 (stereo not drawn) | inconclusive: 10 µM [inhibitor, partial curve] | –
9 | CCOC(=O)c1sc(C)c2c1NC(c1ccc(Cl)cc1)NC2=O (stereo not drawn) | inconclusive: 28.2 µM [inhibitor, single point] | –
10 | COc1cccc2cc(-c3ccnc(N)n3)oc12 | inconclusive: 28.2 µM [inhibitor, single point] | –
11 | Cc1cccc(-c2nsc(SCC(=O)Nc3cc(C)on3)n2)c1 | inconclusive: 28.2 µM [inhibitor, single point] | –
12 | Cc1cc(OCCCn2ccnc2)cc(C(C)C)c1 | – | inactive: 15.9%
13 | O=C(C1=C(O)C(=O)N(CCOCCO)C1c1cccs1)c1cccs1 (stereo not drawn) | active: 7.94 µM | –
14 | CC(C)CC(c1nnnn1Cc1ccccc1)N1CCN(C(=O)c2ccco2)CC1 (stereo not drawn) | – | inactive: 44.8% [at 38.3 µM]
15 | CCOc1ccc(C(=O)Nc2ccc(NC(=O)c3ccco3)c(Cl)c2)cc1Br | inconclusive: 28.2 µM [inhibitor, single point] | –
16 | Cc1ccc(C)c(S(=O)(=O)N2CCN(C(C(=O)Nc3ccc(F)cc3)c3ccccc3)CC2)c1 (stereo not drawn) | – | inactive: 4.77%
17 | O=C1c2ccccc2N2C(=O)c3ccccc3[C@H]2N1c1ccccc1 | – | inactive: 15% [at 38.3 µM]
18 | Cc1ccc(C)c(NC(=O)CSc2nnc(CCCCCNC(=O)OC(C)(C)C)o2)c1 | – | inactive: 17.9%
19 | CCOc1ccccc1-c1ccc(C(=O)O)s1 | – | inactive: -24.6%
20 | Clc1ccc(-c2cc(C3CCNCC3)[nH]n2)cc1 | inconclusive: 2.51 µM [inhibitor, partial curve] | –
21 | CSc1nc(C)cc(-n2cc(F)c(=O)[nH]c2=O)n1 | – | inactive: -1.78% [at 38.3 µM]
22 | CC(C)c1nc2sc3c(SCC(=O)NCc4ccco4)ncnc3c2c2c1CCC2 | inconclusive: 28.2 µM [inhibitor, single point] | –
23 | CC1=NNC(=O)C1C(c1ccccc1)C1C(=O)NN=C1C (stereo not drawn) | – | inactive: 2.85%
24 | O=C(CSCc1ccc([N+](=O)[O-])cc1)NC1CC1 | – | inactive: -0.0536%

Row | SMILES | Potency | activity, negative = IMPase inhibition
25 | Cc1ccc2cc(COC(=O)c3ccco3)c(=O)[nH]c2c1 | – | inactive: 12.9% [at 38.3 µM]
26 | Cc1ccc(NC(=O)c2oc3ccc(S(=O)(=O)N4CCOCC4)cc3c2C)c(C)c1 | inconclusive: 22.4 µM [inhibitor, single point] | –
27 | COc1ccccc1NC(=O)Nc1cc(F)ccc1F | – | inactive: 0.445%
28 | CCOC(=O)/C=C/COc1ccccc1[N+](=O)[O-] | – | inactive: -6.26%
29 | CCCCOc1ccc(C2C(C(=O)c3ccc(C)o3)=C(O)C(=O)N2CC2CCCO2)cc1 (stereo not drawn) | inconclusive: 10 µM [inhibitor, partial curve] | –
30 | CC(C)c1nnc(N2C(=O)C(O)=C(C(=O)c3cccs3)C2c2ccccc2)s1 (stereo not drawn) | inconclusive: 12.6 µM [inhibitor, single point] | –
31 | CCC(=O)Nc1ccc(-c2cc(-c3ccccc3)nc(-c3ccc(NC(=O)CC)cc3)n2)cc1 | active: 10 µM | –
32 | COc1ccc(CNC(=O)c2c(-c3cc(Cl)c(OC)c(Cl)c3)noc2C)cc1 | inconclusive: 31.6 µM [inhibitor, single point] | –
33 | Cc1cc(NC(=O)CCCS(=O)(=O)c2nc(-c3cccs3)cc(C(F)(F)F)n2)no1 | inconclusive: 28.2 µM [inhibitor, single point] | –
34 | COC(=O)c1sc(-c2ccccc2)cc1NC(=O)c1ccccc1 | inconclusive: 11.2 µM [inhibitor, single point] | –
35 | O=C(Nc1ccc2c(c1)oc1ccccc12)c1ccc2c(c1)OCO2 | inconclusive: 31.6 µM [inhibitor, single point] | –
36 | N#Cc1c(N)sc(=S)c2c1CCCC2 | inconclusive: 31.6 µM [inhibitor, single point] | –
37 | Cc1ccc(-n2nc(C)c3c(C)c(CCC(=O)NC(C)c4ccccc4)c(C)nc32)cc1 (stereo not drawn) | inconclusive: 10 µM [inhibitor, partial curve] | –
38 | O=C(CC(=O)c1ccccc1)c1ccccc1 | – | inactive: 4.48%
39 | CC(C)Cn1c(N)c(C(=O)CSc2nc3ccccc3n2C)c(=O)n(C)c1=O | inconclusive: 31.6 µM [inhibitor, single point] | –
40 | O=C(O)CN(CC(=O)O)Cc1cc2c(-c3ccccc3C(=O)O)c3cc(CN(CC(=O)O)CC(=O)O)c(=O)cc-3oc2cc1O | – | inactive: -23.3%
41 | O=C(COc1ncnc2cc([N+](=O)[O-])ccc12)N(CCc1ccccc1)Cc1ccccc1 | inconclusive: 28.2 µM [inhibitor, single point] | –
42 | COc1ccc(CCNc2oc(-c3cccc4ccccc34)nc2P(=O)(OC)OC)cc1OC | inconclusive: 10 µM [inhibitor, partial curve] | –
43 | CCn1nnnc1-c1ccc(OC)c(S(=O)(=O)Nc2ccc(C(=O)OC)cc2)c1 | – | inactive: 19.7% [at 38.3 µM]
44 | N#Cc1nc(-c2cccs2)oc1N1CCN(c2ccccc2)CC1 | inconclusive: 14.1 µM [inhibitor, single point] | –
45 | CCc1nnc(NC(=O)CSc2nc3cc(OC)ccc3cc2C)s1 | inconclusive: 12.6 µM [inhibitor, single point] | –
46 | O=c1c2ccccc2[nH]c(=S)n1Cc1ccc2c(c1)OCO2 | inconclusive: 11.2 µM [inhibitor, single point] | –
47 | Cc1cc(=O)oc2cc(NC(=O)c3cc4ccccc4o3)ccc12 | active: 2 µM | –
48 | CC(C)Oc1ccc(/C(O)=C2/C(=O)C(=O)N(Cc3cccnc3)C2c2ccco2)cc1 (stereo not drawn) | inconclusive: 12.6 µM [inhibitor, partial curve] | –

— PubChem BioAssay AID1457 (National Center for Advancing Translational Sciences (NCATS), 2008)
